The source of these data is patent publication US20090286279A1 (Scripps Research, published 2009).

The target in test [1] is human α-thrombin (Diapharma) (human). The experiment in a line: thrombin inhibition kinetics. As to the method: (§1) To characterize the efficacy of the expressed sulfo-hirudin as an anticoagulant, the kinetics of thrombin inhibition were determined using a fluorogenic enzyme assay based on the single progress curve method previously reported in the literature (Cha, “Tight-binding inhibitors—III. A new approach for the determination of competition between tight-binding inhibitors and substrates—inhibition of adenosine deaminase by coformycin,” Biochem Pharmacol 25:2695-2702 (1976); Komatsu et al., “CX-397, a novel recombinant hirudin analog having a hybrid sequence of hirudin variants-1 and -3,” Biochem Biophys Res Commun 196:773-779 (1993)). In this assay, 100 pM of either sulfo-hirudin or desulfo-hirudin was mixed with 50 μM fluorogenic substrate to which human α-thrombin was added to initiate the reaction.
The exact concentrations of hirudin and sulfo-hirudin were determined by titration against thrombin in a concentration range where 1:1 binding could be assumed. […] These thrombin inhibition kinetic constants derived from non-linear fitting of progress curves averaged over at least 3 readings with standard deviations reported are shown in the table below.

The target is the same in test [2]. The experiment in a line: thrombin inhibition, fluorogenic enzyme assay, single progress curve method; koff is the product of kon and Ki. As to the method: (§2) FIGS. 3A and 3B provide representative plots of thrombin inhibition with their respective fitted progress curves superimposed on the raw data points. Enzyme assays were conducted with 50 μM fluorogenic substrate, 40 pM human α-thrombin, and 100 pM expressed hirudin in a Tris-HCl saline buffer supplemented with polyethylene glycol 6000 and HSA.
as §1
(§3) The exact concentrations of hirudin and sulfo-hirudin were determined by titration against thrombin in a concentration range where 1:1 binding could be assumed. […]

Test [3] has the same target. The experiment in a line: thrombin inhibition, fluorogenic enzyme assay, single progress curve method (40 pM α-thrombin, 100 pM hirudin). As to the method:
as §2, §1, §3

B1: sulfo-hirudin ([Leu^1, Thr^2]-hirudin with sulfotyrosine at position 63, expressed in E. coli from pBAD-HirudinTAG) (other)
chain: LTYTDCTESGQNLCLCEGSNVCGQGNKCILGSDGEKNQCVTGEGTPKPQSHNDGDFEEIPEEYLQ
modifications: sulfotyrosine at position 63
notes: mature; Tyr63 is replaced by the unnatural amino acid sulfotyrosine; also called sulfated hirudin; genetically encoded sulfo-hirudin
As to B1, in test [1], the “fold higher affinity than desulfo-hirudin” value is greater than 10 fold. This molecule also yielded a koff in test [2] of 2.2e-06 s⁻¹.

B2: [Leu^1, Thr^2]-63-desulfo-hirudin (Lepirudin (Refludan)) (other)
chain: LTYTDCTESGQNLCLCEGSNVCGQGNKCILGSDGEKNQCVTGEGTPKPQSHNDGDFEEIPEEYLQ
notes: mature; Expressed in E. coli from pBAD-Hirudin
In test [3], B2 displayed a Ki of 0.307 pM and a kon of 3.8e+07 M⁻¹ s⁻¹. Further, in test [2], the koff was determined as 1.18e-05 s⁻¹.

By koff is commonly meant a measure of how fast the partners let go of each other. A higher koff goes with fast dissociation. Broadly, the Ki is the dissociation constant of the complex between target and ligand, obtained from inhibition or displacement. A higher Ki goes with lower affinity. In general, kon refers to the second-order rate constant of association.
